Assay results reported in the supplement of paper PMC11417369.
± gives the standard deviation of the averaged measurements. The list shows a part of the results.

Tested on: PfAP2-LT AP2 domain (GST-tagged)
Assay: gcPBM binding intensity (ln(normalized median fluorescence intensity)); higher = stronger DNA binding
Procedure, shortened: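 GST-fused DNA-binding domains of P. falciparum, expressed in E. coli, were applied at about 25 μg on average for 1 h to an Agilent 4 × 180k array of primer-extended double-stranded 36-bp intergenic genomic probes and negative controls. Binding intensity is the highest Masliner-normalised natural-log median intensity across replicate spots of either probe orientation, measured with Alexa488 anti-GST antibody and a 488 nm scan.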

| Sequence | gcPBM binding intensity (ln) |
| --- | --- |
| ATACATATATTAGGATGTACGTTTATTTTAGTTATT [XGTACX_site7169] | 8.87 ± 0.44 |
| AGAAAACTCGCTTTTCTAAATCTCAAAAAAAAAAAA [XGTACX_negctrl_site94] | 8.29 ± 0.48 |
| ACAAAAAAAAATATGTTAACTATATATATATATATA [CACACA_negctrl_site346] | 9.5 ± 0.014 |
| AATTGGGAACTGTAATGTACATATATTGAAAGTATA [XGTACX_site7081] | 8.82 ± 0.51 |
| TATTTATTTGTACATATACACACTTAAATATGTTTA [CACACA_site3902] | 8.92 ± 0.42 |
| TAATTAACCTATGCATTCATATAGATACATAAATAT [CACACA_negctrl_site885] | 8.72 ± 0.51 |
| ACCAAATTATCAAATGGTACACATAAAATAATAAAA [XGTACX_site865] | 8.81 ± 0.46 |
| TTTTGTTGTATGATAATTCTTTTATCAATATGTCTT [TGCATGCA_negctrl_site567] | 8.73 ± 0.54 |
| GTTTCTATTCACATTTTACACACGTCCATCGCATTT [CACACA_site9142] | 9.54 ± 0.35 |
| GAACCATTTTTTGGTATACACACGTAATTATAGAAT [CACACA_site1851] | 8.89 ± 0.4 |
| TACAAAAAATTATGGAGTACATATATAATATACAAT [XGTACX_site1004] | 8.78 ± 0.42 |
| AGATCATAATATTATACACACATTATGTATATGTAA [CACACA_site1490] | 8.96 ± 0.35 |
| TGAATACATAAATATAGTACATATATATATATATTA [XGTACX_site8756] | 8.89 ± 0.39 |
| TATAATATTATTTGAAGTACAAACATAAAAGAATTA [XGTACX_site3161] | 8.6 ± 0.45 |
| ATATATATATATATGGTGCATGAAAATTTACTTTGA | 9.38 ± 0.12 |
| ATATACTCATTTAATACACACAAAGAGAAAATTAAT [CACACA_site1923] | 8.93 ± 0.46 |
| GATATTTGTTCATATACACACTTTTGATAAAATATG [CACACA_site4807] | 8.85 ± 0.4 |
| TTTTTTTTTTTTGGTAGTACATAATATTAATATAAT [XGTACX_site4422] | 8.46 ± 0.42 |
| TATATTTTCCTGCAAACACACATATAAATGGGTAGA [CACACA_site4451] | 8.73 ± 0.35 |
| TTTATATAATTTTTTTGTACATATATATGAATACAT [XGTACX_site2316] | 8.73 ± 0.48 |
| TAATTTTTTTTTTTTTTTCATTCTTTTCCTTTGATT [CACACA_negctrl_site1365] | 8.39 ± 0.64 |
| ATAGTACAACAGGTTCTTGACAAACAATATGAATGT [GTGCAC_negctrl_site442] | 9.04 ± 0.52 |
| ACATATAAGATTATGTGTCCACAAAAAAATAAAACA [XGTACX_site2867] | 8.78 ± 0.4 |
| TTTTTAATAACACTTTTGAAAAATAAAATAAAATAA [CACACA_negctrl_site821] | 7.97 ± 0.38 |
| TTTTATGTTCTTAATGCACACTTATAAGTATCTTAT [CACACA_site4895] | 8.98 ± 0.49 |
| CATATCTCAATTTATGCATGCAGGATTTTTCTAATA [TGCATGCA_site516] | 8.79 ± 0.35 |
| TTTTTTTTTTTTTGGTGTACATTTATAAAAAAAAAA [XGTACX_site8368] | 8.07 ± 0.29 |
| ACACAAAAAAAAAAAAAAAAAAAAAAAAAAAAGGAA [CACACA_negctrl_site1162] | 8.71 ± 0.7 |

| Sequence | gcPBM binding intensity (ln) |
| --- | --- |
| AATATGTACAGACATACACACATATATATATATATA [CACACA_site1222] | 9.97 ± 0.14 |
| GAATTCCTTTGTGTATGTACATAATGATATTATTTT [XGTACX_site7369] | 8.98 ± 0.35 |
| TGATCAAATAAGTTTGCATGTCAACAATGCATATAT [TGCATGCA_site1025] | 8.7 ± 0.34 |
| CCCCTTGTGGATTCTACACACAAAAAGTCGTCAAAA [CACACA_site821] | 9.37 ± 0.28 |
| TAATTTTTTAAACACACACACATATATATATATATA [CACACA_site4230] | 9.57 ± 0.25 |
| ATATATATAAAAGAAACAACATTTATTCAAAAGGTA [CACACA_negctrl_site749] | 8.73 ± 0.38 |
| TTATTCTTTTAATATACACACTTTGTCTTTTCGCGC [CACACA_site5525] | 9.13 ± 0.56 |
| ATATAATTCAAATACAGTACATATACAATATATACA [XGTACX_site1191] | 8.66 ± 0.46 |
| ATATTATCATTTTTTTTAATGGAAAAAAAAAAAAAA [CACACA_negctrl_site1298] | 8.12 ± 0.35 |
| TACTTTTATAAAAATTTTATCAAATTCTATATATGT [TGCATGCA_negctrl_site308] | 8.62 ± 0.38 |
| TTTTAAATTTAGTGTAGTACACTTTTTTCAAATATA [XGTACX_site4659] | 8.47 ± 0.49 |
| TATTTTTCTTTTTAAAAATATATCACATGAACATTA [XGTACX_negctrl_site183] | 8.29 ± 0.45 |
| AATAACAAAATAGGCACACGCACATATATATATATA [CACACA_site1497] | 9.79 ± 0.19 |
| ATTCAAAAGATGTATACACACATGTGGATAATATAA [CACACA_site2443] | 9.21 ± 0.48 |
| GCACCCTGTATGAATGCACACATTCATAGAATTGCT [CACACA_site5475] | 9.09 ± 0.3 |
| TACATATTTATATACACACACACACGGATATTTATA [CACACA_site7239] | 9.87 ± 0.45 |
| ATAAAAAAAAAAAAAAAATATATATATATATATATA [XGTACX_negctrl_site424] | 9.575 ± 0.0071 |
| TATATACTTTTTAATCACACTTCTTTAAAAAAAGTA [CACACA_negctrl_site1380] | 8.2 ± 0.28 |
| TGTAATAACGTTATAAAAAGTATAAAAAAAAAAAAA [CACACA_negctrl_site943] | 8.71 ± 0.46 |
| TTATTTTTATTATTTTGTATATATATTTATAGAAAA [XGTACX_negctrl_site465] | 8.23 ± 0.33 |
| TTTTAGGTCTGAATGTGTACTAAATAATATAAGTAT [XGTACX_site6554] | 8.55 ± 0.38 |
| TACCTAATATGTTATACACACATTAGAAGTACATAT [CACACA_site5375] | 9.05 ± 0.33 |
| CAAAATTTTTATAAGTCACACATTATCTAAGCTTAT [CACACA_site5747] | 8.63 ± 0.51 |
| CACACAAAGGAATATACACACATATTTATATTTATA [CACACA_site7841] | 9.21 ± 0.44 |
| AATAAATAAATAAATTAATAAATTAATAAATTAATA [GTGCAC_negctrl_site37] | 8.39 ± 0.58 |
| GTATATAATTTTTTATGTACTAAATTATATGTTTTT [XGTACX_site4907] | 8.7 ± 0.49 |
| ATCTATTTGTAAAGGGTGCGCATATCAATAAAAAAT [GTGCAC_site9503] | 8.95 ± 0.39 |
